# Data reported in the supplement of paper PMC8728848.
# This is one part of the list.
# B1: GH98CBM (Clostridium perfringens) (protein)
# chain: EVYALEESRDVYLSDLDWLNATHGDDTKSKIVQKNHPFTPGNNNQSTKISLKMEDGSISEFEKGLGTIAGSPSTITYDISGAGVTKFFSYLGIDRSANPINEQYAKVDKIEVVVDGKVIYSTINQFPNGLTYETPAIKVDLNIPENAKRLQLKSYAGEKTWGDEVVYADAKFTAKGDFVN
# What was measured:
# Test in all cases: glycan array binding signal (z-score within array); higher = stronger binding
# Conditions in all cases: glycan notation: IUPAC condensed, linker removed
# [1] = target: Neu5Ac(a2-3)Gal(b1-3)[Fuc(a1-4)]GlcNAc(b1-3)Gal(b1-4)[Fuc(a1-3)]GlcNAc
# Outline: (§1)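 Glycan array binding is given as a within-array Z-score, which can be read as non-binding when negative. The arrays, 3228 of them, came from the Consortium for Functional Glycomics database and were retained only where the protein sequence was available. Z-scores were averaged across arrays of the same protein sequence at different concentrations or buffers and across linkers.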
# [2] = target: Neu5Ac(a2-3)Gal(b1-3)[Neu5Ac(a2-3)Gal(b1-4)]GlcNAc
# Outline: as §1
# [3] = target: Neu5Ac(a2-3)Gal(b1-3)[Neu5Ac(a2-6)]GalNAc
# Outline: as §1
# Neu5Ac(a2-3)Gal(b1-4)Glc = target: Neu5Ac(a2-3)Gal(b1-4)Glc
# Outline: as §1
# [4] = target: Neu5Ac(a2-3)Gal(b1-4)GlcNAc
# Outline: as §1
# [5] = target: Neu5Ac(a2-3)Gal(b1-4)GlcNAc(b1-2)Man(a1-3)[GlcNAc(b1-2)Man(b1-4)GlcNAc(b1-2)Man(a1-6)]Man(b1-4)GlcNAc(b1-4)GlcNAc
# Outline: as §1
# [6] = target: Neu5Ac(a2-3)Gal(b1-4)GlcNAc(b1-2)Man(a1-3)[Neu5Ac(a2-6)Gal(b1-4)GlcNAc(b1-2)Man(a1-6)]Man(b1-4)GlcNAc(b1-4)GlcNAc
# Outline: as §1
# [7] = target: Neu5Ac(a2-3)Gal(b1-4)GlcNAc(b1-3)Gal(b1-3)GlcNAc
# Outline: as §1
# [8] = target: Neu5Ac(a2-3)Gal(b1-4)GlcNAc(b1-3)Gal(b1-4)GlcNAc
# Outline: as §1
# [9] = target: Neu5Ac(a2-3)Gal(b1-4)GlcNAc(b1-3)Gal(b1-4)GlcNAc(b1-3)Gal(b1-4)GlcNAc
# Outline: as §1
# [10] = target: Neu5Ac(a2-3)Gal(b1-4)GlcNAc(b1-3)Gal(b1-4)[Fuc(a1-3)]GlcNAc
# Outline: as §1
# [11] = target: Neu5Ac(a2-3)Gal(b1-4)GlcNAc(b1-6)[Gal(b1-3)]GalNAc
# Outline: as §1
# [12] = target: Neu5Ac(a2-3)Gal(b1-4)GlcNAc(b1-6)[Neu5Ac(a2-3)Gal(b1-3)]GalNAc
# Outline: as §1
# [13] = target: Neu5Ac(a2-3)Gal(b1-4)GlcNAc6S
# Outline: as §1
# [14] = target: Neu5Ac(a2-3)Gal(b1-4)[Fuc(a1-3)]GlcNAc
# Outline: as §1
# [15] = target: Neu5Ac(a2-3)Gal(b1-4)[Fuc(a1-3)]GlcNAc(b1-3)Gal
# Outline: as §1
# [16] = target: Neu5Ac(a2-3)Gal(b1-4)[Fuc(a1-3)]GlcNAc(b1-3)Gal(b1-4)GlcNAc
# Outline: as §1
# [17] = target: Neu5Ac(a2-3)Gal(b1-4)[Fuc(a1-3)]GlcNAc(b1-3)Gal(b1-4)[Fuc(a1-3)]GlcNAc(b1-3)Gal(b1-4)[Fuc(a1-3)]GlcNAc
# Outline: as §1
# [18] = target: Neu5Ac(a2-3)Gal(b1-4)[Fuc(a1-3)]GlcNAc(b1-6)[Gal(b1-3)]GalNAc
# Outline: as §1
# [19] = target: Neu5Ac(a2-3)Gal(b1-4)[Fuc(a1-3)]GlcNAc6S
# Outline: as §1
# [20] = target: Neu5Ac(a2-3)Gal6S(b1-4)GlcNAc
# Outline: as §1
# [21] = target: Neu5Ac(a2-3)Gal6S(b1-4)[Fuc(a1-3)]GlcNAc
# Outline: as §1
# Neu5Ac(a2-3)GalNAc = target: Neu5Ac(a2-3)GalNAc
# Outline: as §1
# [22] = target: Neu5Ac(a2-3)GalNAc(b1-4)GlcNAc
# Outline: as §1
# [23] = target: Neu5Ac(a2-3)[GalNAc(b1-4)]Gal(b1-4)Glc
# Outline: as §1
# [24] = target: Neu5Ac(a2-3)[GalNAc(b1-4)]Gal(b1-4)GlcNAc
# Outline: as §1
# [25] = target: Neu5Ac(a2-3)[Neu5Ac(a2-6)]GalNAc
# Outline: as §1
# Neu5Ac(a2-6)Gal = target: Neu5Ac(a2-6)Gal
# Outline: as §1
# Neu5Ac(a2-6)Gal(b1-4)Glc = target: Neu5Ac(a2-6)Gal(b1-4)Glc
# Outline: as §1
# [26] = target: Neu5Ac(a2-6)Gal(b1-4)GlcNAc
# Outline: as §1
# [27] = target: Neu5Ac(a2-6)Gal(b1-4)GlcNAc(b1-2)Man(a1-3)[Gal(b1-4)GlcNAc(b1-2)Man(a1-6)]Man(b1-4)GlcNAc(b1-4)GlcNAc
# Outline: as §1
# [28] = target: Neu5Ac(a2-6)Gal(b1-4)GlcNAc(b1-2)Man(a1-3)[GlcNAc(b1-2)Man(a1-6)]Man(b1-4)GlcNAc(b1-4)GlcNAc
# Outline: as §1
# [29] = target: Neu5Ac(a2-6)Gal(b1-4)GlcNAc(b1-2)Man(a1-3)[GlcNAc(b1-2)Man(b1-4)GlcNAc(b1-2)Man(a1-6)]Man(b1-4)GlcNAc(b1-4)GlcNAc
# Outline: as §1
# [30] = target: Neu5Ac(a2-6)Gal(b1-4)GlcNAc(b1-2)Man(a1-3)[Neu5Ac(a2-6)Gal(b1-4)GlcNAc(b1-2)Man(a1-6)]Man(b1-4)GlcNAc(b1-4)GlcNAc
# Outline: as §1
# [31] = target: Neu5Ac(a2-6)Gal(b1-4)GlcNAc(b1-2)Man(a1-6)[Gal(b1-4)GlcNAc(b1-2)Man(a1-3)]Man(b1-4)GlcNAc(b1-4)GlcNAc
# Outline: as §1
# [32] = target: Neu5Ac(a2-6)Gal(b1-4)GlcNAc(b1-2)Man(a1-6)[GlcNAc(b1-2)Man(a1-3)]Man(b1-4)GlcNAc(b1-4)GlcNAc
# Outline: as §1
# [33] = target: Neu5Ac(a2-6)Gal(b1-4)GlcNAc(b1-3)Gal(b1-4)GlcNAc
# Outline: as §1
# [34] = target: Neu5Ac(a2-6)Gal(b1-4)GlcNAc(b1-3)Gal(b1-4)[Fuc(a1-3)]GlcNAc(b1-3)Gal(b1-4)[Fuc(a1-3)]GlcNAc
# Outline: as §1
# [35] = target: Neu5Ac(a2-6)Gal(b1-4)GlcNAc6S
# Outline: as §1
# Neu5Ac(a2-6)GalNAc = target: Neu5Ac(a2-6)GalNAc
# Outline: as §1
# [36] = target: Neu5Ac(a2-6)GalNAc(b1-4)GlcNAc
# Outline: as §1
# Neu5Ac(a2-8)Neu5Ac = target: Neu5Ac(a2-8)Neu5Ac
# Outline: as §1
# [37] = target: Neu5Ac(a2-8)Neu5Ac(a2-3)Gal(b1-4)Glc
# Outline: as §1
# [38] = target: Neu5Ac(a2-8)Neu5Ac(a2-3)[GalNAc(b1-4)]Gal(b1-4)Glc
# Outline: as §1
# [39] = target: Neu5Ac(a2-8)Neu5Ac(a2-8)Neu5Ac
# Outline: as §1
# [40] = target: Neu5Ac(a2-8)Neu5Ac(a2-8)Neu5Ac(a2-3)Gal(b1-4)Glc
# Outline: as §1
# [41] = target: Neu5Ac(a2-8)Neu5Ac(a2-8)Neu5Ac(a2-3)[GalNAc(b1-4)]Gal(b1-4)Glc
# Outline: as §1
# [42] = target: Neu5Ac(a2-8)Neu5Ac(a2-8)Neu5Ac(a2-8)Neu5Ac(a2-3)[GalNAc(b1-4)]Gal(b1-4)Glc
# Outline: as §1
# [43] = target: Neu5Ac(b2-6)Gal(b1-4)GlcNAc
# Outline: as §1
# Neu5Ac(b2-6)GalNAc = target: Neu5Ac(b2-6)GalNAc
# Outline: as §1
# [44] = target: Neu5Ac9Ac(a2-6)Gal(b1-4)GlcNAc
# Outline: as §1
# [45] = target: Neu5Gc(a2-3)Gal(b1-3)GlcNAc
# Outline: as §1
# [46] = target: Neu5Gc(a2-3)Gal(b1-3)[Fuc(a1-4)]GlcNAc
# Outline: as §1
# Neu5Gc(a2-3)Gal(b1-4)Glc = target: Neu5Gc(a2-3)Gal(b1-4)Glc
# Outline: as §1
# [47] = target: Neu5Gc(a2-3)Gal(b1-4)GlcNAc
# Outline: as §1
# [48] = target: Neu5Gc(a2-3)Gal(b1-4)[Fuc(a1-3)]GlcNAc
# Outline: as §1
# [49] = target: Neu5Gc(a2-6)Gal(b1-4)GlcNAc
# Outline: as §1
# Neu5Gc(a2-6)GalNAc = target: Neu5Gc(a2-6)GalNAc
# Outline: as §1
# [50] = target: Neu5Gc(b2-6)Gal(b1-4)GlcNAc
# Outline: as §1
binder,measurement,setting,value
B1,glycan array binding signal (z-score),[1],0.107
same,glycan array binding signal (z-score),[2],-0.275
same,glycan array binding signal (z-score),[3],-0.233
same,glycan array binding signal (z-score),Neu5Ac(a2-3)Gal(b1-4)Glc,-0.197
same,glycan array binding signal (z-score),[4],-0.237
same,glycan array binding signal (z-score),[5],0.017
same,glycan array binding signal (z-score),[6],-0.286
same,glycan array binding signal (z-score),[7],-0.244
same,glycan array binding signal (z-score),[8],-0.247
same,glycan array binding signal (z-score),[9],-0.186
same,glycan array binding signal (z-score),[10],-0.316
same,glycan array binding signal (z-score),[11],-0.113
same,glycan array binding signal (z-score),[12],-0.166
same,glycan array binding signal (z-score),[13],-0.228
same,glycan array binding signal (z-score),[14],-0.026
same,glycan array binding signal (z-score),[15],-0.211
same,glycan array binding signal (z-score),[16],-0.1
same,glycan array binding signal (z-score),[17],-0.233
same,glycan array binding signal (z-score),[18],0.065
same,glycan array binding signal (z-score),[19],-0.317
same,glycan array binding signal (z-score),[20],0.358
same,glycan array binding signal (z-score),[21],0.036
same,glycan array binding signal (z-score),Neu5Ac(a2-3)GalNAc,-0.243
same,glycan array binding signal (z-score),[22],-0.304
same,glycan array binding signal (z-score),[23],-0.198
same,glycan array binding signal (z-score),[24],-0.196
same,glycan array binding signal (z-score),[25],-0.287
same,glycan array binding signal (z-score),Neu5Ac(a2-6)Gal,-0.26
same,glycan array binding signal (z-score),Neu5Ac(a2-6)Gal(b1-4)Glc,-0.277
same,glycan array binding signal (z-score),[26],-0.119
same,glycan array binding signal (z-score),[27],0.856
same,glycan array binding signal (z-score),[28],-0.091
same,glycan array binding signal (z-score),[29],-0.279
same,glycan array binding signal (z-score),[30],-0.161
same,glycan array binding signal (z-score),[31],-0.008
same,glycan array binding signal (z-score),[32],-0.278
same,glycan array binding signal (z-score),[33],-0.243
same,glycan array binding signal (z-score),[34],-0.092
same,glycan array binding signal (z-score),[35],-0.246
same,glycan array binding signal (z-score),Neu5Ac(a2-6)GalNAc,-0.183
same,glycan array binding signal (z-score),[36],-0.167
same,glycan array binding signal (z-score),Neu5Ac(a2-8)Neu5Ac,-0.202
same,glycan array binding signal (z-score),[37],-0.274
same,glycan array binding signal (z-score),[38],0.325
same,glycan array binding signal (z-score),[39],-0.247
same,glycan array binding signal (z-score),[40],-0.225
same,glycan array binding signal (z-score),[41],0.044
same,glycan array binding signal (z-score),[42],-0.273
same,glycan array binding signal (z-score),[43],-0.176
same,glycan array binding signal (z-score),Neu5Ac(b2-6)GalNAc,-0.152
same,glycan array binding signal (z-score),[44],-0.332
same,glycan array binding signal (z-score),[45],-0.257
same,glycan array binding signal (z-score),[46],-0.039
same,glycan array binding signal (z-score),Neu5Gc(a2-3)Gal(b1-4)Glc,-0.107
same,glycan array binding signal (z-score),[47],-0.273
same,glycan array binding signal (z-score),[48],-0.044
same,glycan array binding signal (z-score),[49],-0.286
same,glycan array binding signal (z-score),Neu5Gc(a2-6)GalNAc,-0.181
same,glycan array binding signal (z-score),[50],-0.239
